Test results reported in the supplement of paper PMC7125110.
± gives the standard error. Variants at the background level are over-represented here.

B1: glmS ribozyme (parent)
chain: AUAAAAGCGCCAGAACUACAGAAAUGUAGUUGACGAGGAGGAGGUUUAUCGAAUUUUCGGCGGAUGCCUCCAAA

Columns and labels:
Conditions in all cases: with glucosamine-6-phosphate
[1] = variants of: B1; experiment: self-cleavage kobs at 40 uM GlcN6P; higher = faster cleavage; RNA array
Method in brief: (§1)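 On sequenced MiSeq chips, barcoded ribozyme variants were made in situ by E. coli RNA polymerase and followed at 37 °C through a hybridised Cy3 probe. Glucosamine-6-phosphate was flowed in at 40 μM to 10 mM in HEPES/KCl/Mg(OAc)2 buffer. Exponential fits to normalised per-tile medians gave kobs, and weighted Michaelis–Menten fits gave kcat and KM.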

[2] = variants of: B1; experiment: self-cleavage kobs at 2500 uM GlcN6P; higher = faster cleavage; RNA array
Method in brief: as §1

[3] = variants of: B1; experiment: self-cleavage kobs at 10000 uM GlcN6P; higher = faster cleavage; RNA array
Method in brief: as §1

[4] = variants of: B1; experiment: self-cleavage kobs at 640 uM GlcN6P; higher = faster cleavage; RNA array
Method in brief: as §1

[5] = variants of: B1; experiment: self-cleavage kobs at 160 uM GlcN6P; higher = faster cleavage; RNA array
Method in brief: as §1

Variant	self-cleavage kobs at 40 uM GlcN6P [1]	self-cleavage kobs at 2500 uM GlcN6P [2]	self-cleavage kobs at 10000 uM GlcN6P [3]	self-cleavage kobs at 640 uM GlcN6P [4]	self-cleavage kobs at 160 uM GlcN6P [5]
AUAAAAGCGCCAGAACUACAGAAAUGUAGUUGACGAGGAGGAGGUUUAUCGAGUUUUCUGCGGACGCCUCCAAA [A53G G59U U65C]	< 1e-05 s⁻¹				
AUAAAAGCGCCAGAACUACAGAAAUGUAGUUGACGAGGAGGAGGUUUAUCGAGUUUUCGACGGAUGCCUCCAAA [A53G G60A]	< 1e-05 s⁻¹	3.68e-05 ± 1e-05 s⁻¹	1.88e-05 ± 8.7e-06 s⁻¹		
AUAAAAGCGCCAGAACUACAGAAAUGUAGUUGACGAGGAGGAGGUUUAUCGAGUUUUCGUCGGAUGCCUCAAAA [A53G G60U C71A]	< 1e-05 s⁻¹				
AUAAAAGCGCCAGAACUACAGAAAUGUAGUUGACGAGGAGGAGGUUUAUCGAGUUUUCGGCGGAUACCUCCAAA [A53G G66A]	0.000617 ± 0.00011 s⁻¹	0.0128 ± 0.005 s⁻¹	0.0293 ± 0.0075 s⁻¹	0.00474 ± 0.0013 s⁻¹	
AUAAAAGCGCCAGAACUACAGAAAUGUAGUUGACGAGGAGGAGGUUUAUCGAGUUUUCGGCGGAUUACUCCAAA [A53G G66U C67A]	7.95e-05 ± 1.9e-05 s⁻¹		0.00186 ± 0.00059 s⁻¹		
AUAAAAGCGCCAGAACUACAGAAAUGUAGUUGACGAGGAGGAGGUUUAUCGAGUUAUCGGCGGAUGCCUCCAAA [A53G U56A]	0.000437 ± 9e-05 s⁻¹	0.00663 ± 0.0019 s⁻¹	0.0137 ± 0.0026 s⁻¹	0.00273 ± 0.00051 s⁻¹	0.00116 ± 0.00021 s⁻¹
AUAAAAGCGCCAGAACUACAGAAAUGUAGUUGACGAGGAGGAGGUUUAUCGAGUUUUCGGCGGAUGCCCCCAAA [A53G U69C]	0.000897 ± 0.00014 s⁻¹	0.002 ± 0.00044 s⁻¹	0.00674 ± 0.0018 s⁻¹	0.00235 ± 0.00048 s⁻¹	0.000469 ± 8.4e-05 s⁻¹
AUAAAAGCGCCAGAACUACAGAAAUGUAGUUGACGAGGAGGAGGUUUAUCGAUUUUUCGGCGGGUGCCUCCAAA [A53U A64G]	0.000491 ± 6.1e-05 s⁻¹	0.0138 ± 0.0041 s⁻¹		0.00551 ± 0.0013 s⁻¹	0.00148 ± 0.00041 s⁻¹
AUAAAAGCGCCAGAACUACAGAAAUGUAGUUGACGAGGAGGAGGUUUAUCGAUUUUUCGGCGGAUGCUUCCAAA [A53U C68U]	0.000159 ± 2.1e-05 s⁻¹	0.00421 ± 0.00073 s⁻¹	0.00507 ± 0.00083 s⁻¹	0.000788 ± 9.5e-05 s⁻¹	0.000357 ± 0.00011 s⁻¹
AUAAAAGCGCCAGAACUACAGAAAUGUAGUUGACGAGGAGGAGGUUUAUCGAUUUUUCGACGGAGGCCUCCAAA [A53U G60A U65G]	< 1e-05 s⁻¹		< 1e-05 s⁻¹		
AUAAAAGCGCCAGAACUACAGAAAUGUAGUUGACGAGGAGGAGGUUUAUCGAUUUUUCGGCUGAUGCCUUCAAA [A53U G62U C70U]	< 1e-05 s⁻¹				
AUAAAAGCGCCAGAACUACAGAAAUGUAGUUGACGAGGAGGAGGUUUAUCGAUUUUUCGGCGUAUGCCUCCAAA [A53U G63U]	< 1e-05 s⁻¹		< 1e-05 s⁻¹	< 1e-05 s⁻¹	< 1e-05 s⁻¹
AUAAAAGCGCCAGAACUACAGAAAUGUAGUUGACGAGGAGGAGGUUUAUCGAUUUUUCGGCGGAUACCUCCAAA [A53U G66A]	0.000372 ± 5.2e-05 s⁻¹	0.00666 ± 0.0024 s⁻¹	0.0144 ± 0.0026 s⁻¹	0.00327 ± 0.00068 s⁻¹	0.000827 ± 0.00015 s⁻¹
AUAAAAGCGCCAGAACUACAGAAAUGUAGUUGACGAGGAGGAGGUUUAUCGAUAUUUCGGCGGAUGCUUCCAAA [A53U U54A C68U]	0.00036 ± 9.6e-05 s⁻¹				
AUAAAAGCGCCAGAACUACAGAAAUGUAGUUGACGAGGAGGAGGUUUAUCGAUCUUUCGGCGCAUGCCUUCAAA [A53U U54C G63C C70U]	< 1e-05 s⁻¹				
AUAAAAGCGCCAGAACUACAGAAAUGUAGUUGACGAGGAGGAGGUUUAUCGAUGUUUCGGCGGAUGCCUCAAAA [A53U U54G C71A]	9.49e-05 ± 2.8e-05 s⁻¹		0.00478 ± 0.0013 s⁻¹		
AUAAAAGCGCCAGAACUACAGAAAUGUAGUUGACGAGGAGGAGGUUUAUCGAUUGUUCGGCGGCUGCCUCCAAA [A53U U55G A64C]	< 1e-05 s⁻¹				
AUAAAAGCGCCAGAACUACAGAAAUGUAGUUGACGAGGAGGAGGUUUAUCGAUUUUUCGGCGGACGCCUCAAAA [A53U U65C C71A]	< 1e-05 s⁻¹				
AUAAAAGCGCCAGAACUACAGAAAUGUAGUUGACGAGGAGGAGGUUUAUCGAAAUUUUGGCGGAUGCCUCCAAA [U54A C58U]	< 1e-05 s⁻¹				
AUAAAAGCGCCAGAACUACAGAAAUGUAGUUGACGAGGAGGAGGUUUAUCGAAAUUUCGGGGGGUGCCUCCAAA [U54A C61G A64G]	< 1e-05 s⁻¹	< 1e-05 s⁻¹	< 1e-05 s⁻¹		
AUAAAAGCGCCAGAACUACAGAAAUGUAGUUGACGAGGAGGAGGUUUAUCGAAAUUUCGGUGGAUGCCUCGAAA [U54A C61U C71G]	< 1e-05 s⁻¹				
AUAAAAGCGCCAGAACUACAGAAAUGUAGUUGACGAGGAGGAGGUUUAUCGAAAUUUCGGCCGAUGCCUCCAAA [U54A G62C]	< 1e-05 s⁻¹	< 1e-05 s⁻¹	< 1e-05 s⁻¹	< 1e-05 s⁻¹	< 1e-05 s⁻¹
AUAAAAGCGCCAGAACUACAGAAAUGUAGUUGACGAGGAGGAGGUUUAUCGAAAUUUCGGCGGAAGCCUCCAAA [U54A U65A]	0.000105 ± 2.7e-05 s⁻¹	0.00254 ± 0.00097 s⁻¹	0.00595 ± 0.00078 s⁻¹	0.00105 ± 0.00019 s⁻¹	
AUAAAAGCGCCAGAACUACAGAAAUGUAGUUGACGAGGAGGAGGUUUAUCGAACUUUCGGCGGGUGCCUCCAAA [U54C A64G]	0.000616 ± 8.4e-05 s⁻¹	0.0287 ± 0.0082 s⁻¹	0.0123 ± 0.0031 s⁻¹	0.00883 ± 0.0018 s⁻¹	0.00156 ± 0.00033 s⁻¹
AUAAAAGCGCCAGAACUACAGAAAUGUAGUUGACGAGGAGGAGGUUUAUCGAACUUUCGGCGGAUGCCUUCAAA [U54C C70U]	0.000628 ± 8e-05 s⁻¹		0.00879 ± 0.0016 s⁻¹	0.00435 ± 0.0008 s⁻¹	0.00162 ± 0.00035 s⁻¹
AUAAAAGCGCCAGAACUACAGAAAUGUAGUUGACGAGGAGGAGGUUUAUCGAACUUUCGGCGGAUGCCUCUAAA [U54C C71U]	0.000802 ± 8.6e-05 s⁻¹	0.0101 ± 0.0027 s⁻¹	0.036 ± 0.0094 s⁻¹	0.00401 ± 0.00061 s⁻¹	0.00142 ± 0.00023 s⁻¹
